About 200 (0.062%) of roughly 320,000 compounds were called active. Inconclusive means that the source gave no clear call. Such entries were picked first, then a sample of the others. Calls come from the whole dose curve; as a rule, active = well fitted activation curve with a large enough effect; inconclusive = small, poorly fitted or top-dose-only effect; inactive = no such curve, though single readings can be large or run the other way. No potency is given beside an inconclusive call; the fits are too rough.
experiment: qHTS assay for re-activators of p53 using a Luc reporter; conditions: H1299 p53-A138V BP100-luciferase reporter, luminescence, 24 h; series mostly up to 92.2 µM; note: nearly all actives have a fitted effect of over 45% in size
Summary of the method: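 H1299 (p53-null), stable ts p53-A138V + BP100-Luc; 1000 cells/well, Opti-MEM/10% FBS; cpd 4 pt, 1:5; 24 h, 37 deg C, 5% CO2; detection reagent 10 min RT; luminescence.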
Potency is the fitted concentration of half-maximal effect; tags give direction and shape of the fitted curve.

With O=C(N/N=C/c1cn(-c2ccccc2)nc1-c1cc2ccccc2o1)c1c[nH]c2ccccc12 as the compound, how does the Potency read?
Its Potency is inconclusive [activator, full curve, poor fit].

For CCCCn1cnc2c(cnn2-c2ccc(Cl)cc2)c1=O, which Potency is on record?
The Potency was inconclusive [activator, single point].

For O=C(Nc1cccc(Cl)c1N1CCCCC1)c1ccc2c(c1)OCCO2, which Potency is on record?
The Potency was “inactive”.

Which Potency does the source give for CC(Oc1ccc2c(-c3ccccc3)cc(=O)oc2c1)C(=O)O (stereo not given) here?
Its Potency is “inactive”.

For C=CCNC(=S)N1CCN(Cc2ccc3c(c2)OCO3)CC1, which Potency is on record?
The Potency was inconclusive [activator, single point].

With O=C(NCCN1C(=O)S/C(=C\c2ccc(F)cc2)C1=O)C1CCN(S(=O)(=O)c2cccs2)CC1 as the compound, how does the Potency read?
The Potency was inconclusive [activator, partial curve, poor fit].

With CC[C@@H]1C(c2cccc(Cl)c2)=NN(c2ccc(Br)cc2)[C@H]1C(=O)N1CCOC1=O as the compound, how does the Potency read?
Its Potency is inconclusive [activator, partial curve, poor fit].

With COc1cccc(C(=O)NCCSc2ccc(F)cc2)c1 as the compound, how does the Potency read?
Its Potency is “inactive”.

Which Potency does the source give for Cc1ccc(/C(C#N)=C\c2cn(C)c3ccccc23)cc1 here?
The Potency was inconclusive [activator, full curve, poor fit].

For O=C(Nc1ccccn1)c1cc2cc([N+](=O)[O-])ccc2s1, which Potency is on record?
Its Potency is inconclusive [activator, full curve, poor fit].

Which Potency does the source give for CCOCc1nnc(NC(=O)CCC2CCCCC2)s1 here?
The Potency was inconclusive [activator, single point].

Which Potency does the source give for Oc1[nH]c2ccccc2c1N=Nc1nc2ccccc2s1 here?
Its Potency is inconclusive [activator, full curve, poor fit].

For Clc1ccc(-c2nnc(-c3ccco3)nc2N2CCCCC2)cc1, which Potency is on record?
The Potency was “inactive”.

For O=[N+]([O-])c1ccc2nonc2c1Nc1ccccc1, which Potency is on record?
Its Potency is inconclusive [activator, single point].

Which Potency does the source give for Cc1ccc2nc(NC(=O)CN3CCOCC3)sc2c1 here?
Its Potency is inconclusive [activator, full curve, poor fit].

Which Potency does the source give for Cc1ccc(Nc2nc(CSc3n[nH]c(N)n3)cs2)cc1 here?
The Potency was “inactive”.

For O=C(Nc1nc(-c2ccccn2)cs1)c1ccc2c(c1)OCCO2, which Potency is on record?
The Potency was “inactive”.

Which Potency does the source give for COc1ccc(NC(=O)c2cc(C3CC3)on2)c(OC)c1 here?
The Potency was inconclusive [activator, partial curve, poor fit].

Which Potency does the source give for O=Nc1ccc(NOC(=O)c2ccccc2Br)cc1 here?
Its Potency is inconclusive [activator, partial curve, poor fit].

Which Potency does the source give for C=CCNC(=S)/N=c1/scc(C)n1C here?
The Potency was inconclusive [activator, single point].

Which Potency does the source give for O=C(CNS(=O)(=O)c1cccc(Cl)c1)Nc1ccc(-c2nc3ccccc3s2)cc1 here?
Its Potency is inconclusive [activator, full curve, poor fit].

Which Potency does the source give for O=C(c1ccccc1)c1ccc2c(c1)OCCCO2 here?
The Potency was inconclusive [activator, partial curve, poor fit].

Which Potency does the source give for Fc1ccc(-c2nc(-c3cnccn3)no2)c(Cl)c1 here?
Its Potency is “inactive”.

With CCc1ccc(/C=N/NC(=O)c2nnn(-c3nonc3N)c2C(C)C)cc1 as the compound, how does the Potency read?
Its Potency is “inactive”.

Which Potency does the source give for COc1cc(-c2ccc3c(=O)c4ccccc4n(C)c3c2)cc(OC)c1OC here?
The Potency was inconclusive [activator, single point].

Which Potency does the source give for O=C(Nc1ccccc1)c1ccc(-c2ccccc2Cl)o1 here?
Its Potency is inconclusive [activator, partial curve, poor fit].

With CCOC(=O)c1[nH]c(C)c(C(=O)OCC(=O)N2CCc3ccccc32)c1C as the compound, how does the Potency read?
Its Potency is “inactive”.

With Cc1cc(CN(C)C(=O)c2cc(COc3ccc(C)c(C)c3)on2)n[nH]1 as the compound, how does the Potency read?
The Potency was inconclusive [activator, partial curve, poor fit].

Which Potency does the source give for CSc1ccccc1C(=O)C1CCCN(Cc2c(C)n(C)n(-c3ccccc3)c2=O)C1 (stereo not given) here?
Its Potency is “inactive”.

For CCc1noc(C)c1C(=O)Nc1nc2c(F)cc(F)cc2s1, which Potency is on record?
The Potency was inconclusive [activator, full curve, poor fit].

For Cc1ccc(NC(=O)NC(=O)N(C2CCCCC2)S(=O)(=O)c2ccccc2)cc1, which Potency is on record?
Its Potency is inconclusive [activator, single point].

With C/C(=N\NC(=O)c1sccc1C)c1cccnc1 as the compound, how does the Potency read?
Its Potency is inconclusive [activator, partial curve, poor fit].

Which Potency does the source give for COc1ccccc1-c1noc(-c2ccccc2C(=O)NCc2ccco2)n1 here?
The Potency was “inactive”.

With CC(/C=C/c1ccco1)=N/NC(=O)OC(C)(C)C as the compound, how does the Potency read?
Its Potency is inconclusive [activator, partial curve, poor fit].

With CCOC(=O)C1CCCN(C(=O)CCc2nnc(-c3ccc(C(C)=O)s3)o2)C1 (stereo not given) as the compound, how does the Potency read?
Its Potency is inconclusive [activator, partial curve, poor fit].

For Cc1cc(C(=O)CSc2ccc(F)cc2)cc(C)c1OC(=S)N(C)C, which Potency is on record?
Its Potency is inconclusive [activator, full curve, poor fit].

Which Potency does the source give for CCOC(=O)Nc1sc2c(c1C#N)CCCC2 here?
Its Potency is inconclusive [activator, partial curve, poor fit].

With COCc1cc(=O)n2[nH]c(C)c(-c3ccccc3)c2n1 as the compound, how does the Potency read?
Its Potency is inconclusive [activator, single point].

Which Potency does the source give for Cc1ccccc1NC(=O)c1cnc2ccccn2c1=O here?
Its Potency is inconclusive [activator, partial curve, poor fit].

With CC1CCCN(C(=O)COC(=O)c2ccc3[nH]c4c(c3c2)CCCC4)C1 (stereo not given) as the compound, how does the Potency read?
The Potency was inconclusive [activator, partial curve, poor fit].

For COc1ccc(C(=O)N=c2sc3ccccc3n2C)cc1, which Potency is on record?
The Potency was “inactive”.

Which Potency does the source give for CCSc1ccc2c(c1)N(CCCN1CCN(C)CC1)c1ccccc1S2 here?
The Potency was “inactive”.

With CC(C)CNC(=S)NC(=O)c1ccc(Cl)cc1 as the compound, how does the Potency read?
The Potency was inconclusive [activator, partial curve, poor fit].

Which Potency does the source give for O=C(Nc1ccc2c(c1)OCCO2)c1cccs1 here?
The Potency was inconclusive [activator, partial curve, poor fit].

With c1nnc(NC2=NCCCCC2)s1 as the compound, how does the Potency read?
Its Potency is inconclusive [activator, single point].

For Cc1ccc(-c2nc(N/N=C/c3cccnc3)c3ccccc3n2)cc1, which Potency is on record?
Its Potency is inconclusive [activator, full curve, poor fit].

For CC(Oc1ccccc1)C(=O)Nc1nc(-c2ccncc2)cs1 (stereo not given), which Potency is on record?
Its Potency is “inactive”.

With CCOc1ccc(S(=O)(=O)NCc2ccc(OC)cc2)c2cccnc12 as the compound, how does the Potency read?
Its Potency is “inactive”.

For O=C(COC(=O)CNS(=O)(=O)c1cccc(Br)c1)NC(=O)Nc1ccc2c(c1)OCCO2, which Potency is on record?
Its Potency is inconclusive [activator, single point].

Which Potency does the source give for CCOc1ccc(-c2nc(C#N)c(N3CCN(CC)CC3)o2)cc1 here?
Its Potency is “inactive”.

Which Potency does the source give for CN(c1cccc(Cl)c1)S(=O)(=O)c1cccc(C(=O)NN2CCOCC2)c1 here?
Its Potency is “inactive”.

With COc1ccccc1OCCOc1ccccc1/C=N/n1cnnc1 as the compound, how does the Potency read?
Its Potency is inconclusive [activator, single point].

For Oc1[nH]c2ccccc2c1N=Nc1ccc(F)cc1, which Potency is on record?
The Potency was inconclusive [activator, full curve, poor fit].

With Cc1ccc(S(=O)(=O)NC(=S)NC2CCCCC2)cc1 as the compound, how does the Potency read?
Its Potency is “inactive”.

Which Potency does the source give for Cc1ccc(SCCCCN2CCNCC2)cc1 here?
Its Potency is inconclusive [activator, partial curve, poor fit].

Which Potency does the source give for Cc1cc(C)c(O)c(N)c1 here?
Its Potency is “inactive”.

With N#Cc1c(NC(=O)C2C3C=CC(C3)C2C(=O)O)sc2c1CCCCC2 (stereo not given) as the compound, how does the Potency read?
Its Potency is inconclusive [activator, partial curve, poor fit].

For CCOC(=O)c1ccc2nc(NC(=O)c3cccs3)sc2c1, which Potency is on record?
Its Potency is inconclusive [activator, partial curve, poor fit].

With CCOc1ccccc1-n1nnnc1SCC(=O)NC(=O)NCc1ccco1 as the compound, how does the Potency read?
Its Potency is “inactive”.

Which Potency does the source give for O=C(c1ccc(F)cc1)N1CCCC(C(=O)N2CCN(c3ccccc3)CC2)C1 (stereo not given) here?
The Potency was “inactive”.

For O=C(Nc1nccs1)c1ccc(N2CCOCC2)c([N+](=O)[O-])c1, which Potency is on record?
Its Potency is “inactive”.

For CCCc1nnc(NC(=O)Nc2ccccc2OC)s1, which Potency is on record?
The Potency was inconclusive [activator, single point].

Which Potency does the source give for N#C/C(=N\Nc1ccc(F)cc1)C(=N)N1CCCCCC1 here?
Its Potency is inconclusive [activator, full curve, poor fit].

With O=C(/C=C/c1ccc(Cl)cc1Cl)Nc1cccc(S(=O)(=O)NC2=NCCCCC2)c1 as the compound, how does the Potency read?
The Potency was inconclusive [activator, partial curve, poor fit].

For CC(C)Cc1cc(C(=O)Nc2ccc(F)cc2F)no1, which Potency is on record?
Its Potency is inconclusive [activator, partial curve, poor fit].

Which Potency does the source give for COc1ccc(C2=NN(CN3C(=O)C(=O)c4ccccc43)C(c3ccc(OC)cc3)C2)cc1 (stereo not given) here?
Its Potency is inconclusive [activator, partial curve, poor fit].

With O=C(NC(=S)Nc1ccc(Br)cc1)C1CCC1 as the compound, how does the Potency read?
Its Potency is inconclusive [activator, partial curve, poor fit].

With N#CC1=C(SCC(=O)c2ccccc2)NC2=C(C(=O)CCC2)C1c1ccco1 (stereo not given) as the compound, how does the Potency read?
Its Potency is inconclusive [activator, partial curve, poor fit].

For Cc1cc(Oc2ccccc2)nc(-c2ccccc2O)n1, which Potency is on record?
The Potency was inconclusive [activator, partial curve, poor fit].

For C(=N\Nc1nc(-c2ccccc2)cs1)/c1cccs1, which Potency is on record?
Its Potency is inconclusive [activator, partial curve, poor fit].
